Where “and” joins values, the source holds several entries; their conditions need not be identical. Identical values can stand only once. Counter-ions that a name gives are not always drawn. ± gives the standard deviation of the averaged measurements. Whole data set: some 2,600 compounds, median “total cell number (DAPI+ nuclei) relative to DMSO vehicle control” near -1.4, cut for the lowest 2% near -23. Some of the results follow.

The test system of the experiment is jimpy (Plp1 jimpy) mouse iPSC-derived oligodendrocyte progenitor cells. Nature of the experiment: total cell number (DAPI+ nuclei) relative to DMSO vehicle control (SDs above negative control mean); higher = more surviving cells. The settings on record: 10 µM; 3 days.
`CC(C)n1nc(-c2cc3cc(O)ccc3[nH]2)c2c(N)ncnc21` had a total cell number of -12. To `CN(C)CCN(Cc1cccs1)c1ccccn1` [Methapyrilene hydrochloride] belongs -0.917; to `O=c1ncccn1[C@@H]1O[C@H](CO)[C@@H](O)[C@H]1O` [Zebularine], 1.16. `O=C(CCCCCCNC(=O)c1cnc(N(c2ccccc2)c2ccccc2)nc1)NO` [Rocilinostat (ACY-1215)] had a total cell number of -9.28. The figure for `NC(CO)(CO)CO` [Trometamol] is -0.542; for `c1cnc2cc3c(cc2n1)[C@@H]1CNC[C@H]3C1` [Varenicline Tartrate] it is 1.55. The figure for `c1cnc2cc3c(cc2n1)[C@@H]1CNC[C@H]3C1` [Varenicline tartrate] is -2.7. To `C[C@@H](N)[C@H]1CC[C@H](C(=O)Nc2ccncc2)CC1` belongs -1.42 and -2.14; to `CCCCCN(CCCOC)C(=O)C(CCC(=O)O)NC(=O)c1ccc(Cl)c(Cl)c1` (stereo unspecified) [Loxiglumide], -0.322; to `CO[C@H]1/C=C/O[C@@]2(C)Oc3c(C)c(O)c4c(c3C2=O)C2=NC3(CCN(CC(C)C)CC3)NC2=C(NC(=O)/C(C)=C\C=C\[C@H](C)[C@H](O)[C@@H](C)[C@@H](O)[C@@H](C)[C@H](OC(C)=O)[C@@H]1C)C4=O` [Rifabutin], -6.51. `O=c1cc(-c2ccc(O)cc2)oc2cc(O)cc(O)c12` [Apigenin] had a total cell number of -2.8 ± 0.38. The figure for `O=C1CN2Cc3c(ccc(Cl)c3Cl)N=C2N1` [Anagrelide HCl] is -0.876; for `CN(C)Cc1c(C(=O)NCCOc2ccc(C(=O)NO)cc2)oc2ccccc12` it is -20.2.

`CC(C)NCC(O)COc1ccc(COCCOC(C)C)cc1` (stereo unspecified) [Bisoprolol hemifumarate salt] showed a total cell number of -1.73. The figure for `CC(C)NCC(O)COc1ccc(COCCOC(C)C)cc1` (stereo unspecified) [Bisoprolol fumarate] is -22.3; for `CC(N)(C(=O)O)c1ccc(C(=O)O)cc1` (racemic) [(±)-alpha-Methyl-4-carboxyphenylglycine] it is -1.73; for `COc1ccc(-c2cc(=O)c3c(O)cc(O)cc3o2)cc1O` [Diosmetin] it is -5.03. To `CC(N)=O` [Acetamide] belongs 0.578. Take `CN1CC[C@H](c2c(O)cc(O)c3c(=O)cc(-c4ccccc4Cl)oc23)[C@H](O)C1` [Flavopiridol HCl]: the total cell number is -8.34. To `Nc1nc(Cl)nc2c1ncn2[C@@H]1O[C@H](CO)[C@@H](O)[C@@H]1F` [Clofarabine] belongs -21.2; to `CC(C)CC(=O)Nc1n[nH]c2c1CN(C(=O)C1CCN(C)CC1)C2(C)C`, -14.7. The figure for `C=C1CC[C@H](O)C/C1=C/C=C1\CCC[C@]2(C)[C@@H]([C@H](C)CCCC(C)(C)O)CC[C@@H]12` [Calcifediol] is -1.15; for `O=C(NCCS(=O)(=O)c1ccc(C(F)(F)F)cn1)c1ccc(Cl)cc1` it is -0.0247.

As to `CC[C@H]1OC(=O)[C@H](C)[C@@H](O[C@H]2C[C@@](C)(OC)[C@@H](O)[C@H](C)O2)[C@H](C)[C@@H](O[C@@H]2O[C@H](C)C[C@H](N(C)C)[C@H]2O)[C@](C)(O)C[C@@H](C)/C(=N\OCOCCOC)[C@H](C)[C@@H](O)[C@]1(C)O` [Roxithromycin], the total cell number is -0.808. To `O=C1NC(=O)[C@@]2(CCOc3ccc(F)cc32)N1` [Sorbinil] belongs -1.06. To `CCc1cccc(N(C)C(=N)Nc2cccc3ccccc23)c1` belongs -6.57; to `O=C(N/N=C/c1ccc(O)c(O)c1)c1cc2ccccc2cc1O` [Dynasore], -11.3.

In turn, `C=CC[C@@H]1/C=C(\C)C[C@H](C)C[C@H](OC)[C@H]2O[C@@](O)(C(=O)C(=O)N3CCCC[C@H]3C(=O)O[C@H](/C(C)=C/[C@@H]3CC[C@@H](O)[C@H](OC)C3)[C@H](C)[C@@H](O)CC1=O)[C@H](C)C[C@@H]2OC` [Tacrolimus (FK506)] had a total cell number of -1.02. The figure for `COc1ccc2[nH]cc(CCNC(C)=O)c2c1` [Melatonin] is -2.41 ± 0.65; for `O=C([O-])c1ccccc1O.[Na+]` [Sodium salicylate] it is -0.852. The figure for `Cc1ccc(C(=O)c2cc(O)c(O)c([N+](=O)[O-])c2)cc1` [Tolcapone] is 1.26; for `COc1ccc(COc2ccc(Cc3cnc(N)nc3N)cc2OC)cc1` it is -0.98; for `CC(C)c1cccc(C(C)C)c1N1C(=O)c2ccc(O)cc2C1=O` it is -3.15. To `COc1ccc(C(=O)NCc2cccnc2)cc1C(=O)NCc1cccnc1` [Picotamide] belongs -0.923; to `COC(=O)C1=C(C)NC(C)=C(C(=O)OC)C1c1cccc(NC(=O)NCCCN2CCC(c3cccc(OC)c3)CC2)c1`, -10.7; to `CCN(Cc1ccncc1)C(=O)C(CO)c1ccccc1` (stereo unspecified) [Tropicamide], -0.607 ± 0.064. `CCCCCc1ccc(/C=C/C(=O)Nc2cc(Cl)ccc2C(=O)O)cc1`: the total cell number was -1.71. The figure for `N=C(N)c1ccccc1` [Benzamidine hydrochloride] is -1.3; for `CC(=O)O/N=C1\C(=O)N(Cc2cc(Cl)ccc2Cl)c2ccc(Cl)cc21` it is 0.904. To `OC(CCN1CCCCC1)(c1ccccc1)C1CC2C=CC1C2` (stereo unspecified) [Biperiden HCl] belongs 7.69.

`OC(CCN1CCCCC1)(c1ccccc1)C1CC2C=CC1C2` (stereo unspecified) [Biperiden hydrochloride] displayed a total cell number of -0.289.

`CCN(CC)CC#CCOC(=O)C(O)(c1ccccc1)C1CCCCC1` (stereo unspecified) [Oxybutynin Chloride] gave a total cell number of 4.94.

In turn, `CCN(CC)CC#CCOC(=O)C(O)(c1ccccc1)C1CCCCC1` (stereo unspecified) [Oxybutynin chloride] yielded a total cell number of 6.83. `Cc1ncc([N+](=O)[O-])n1CCO` [Metronidazole]: the total cell number is -1.54. The figure for `CN1C2CCCC1CC(NC(=O)c1nn(C)c3ccccc13)C2` (stereo unspecified) [Granisetron HCl] is -0.125. The figure for `CN1C2CCCC1CC(NC(=O)c1nn(C)c3ccccc13)C2` (stereo unspecified) [Granisetron hydrochloride] is -0.619. To `O=C(CCCN1CC=C(n2c(=O)[nH]c3ccccc32)CC1)c1ccc(F)cc1` [Droperidol] belongs -1.63 ± 0.086; to `CCO[C@@H]1OC(=O)C[C@@H]1NC(=O)[C@@H]1CCCN1C(=O)[C@@H](NC(=O)c1ccc(N)c(Cl)c1)C(C)(C)C`, 0.277. In turn, `CCN(CC)CCNC(=O)c1cc(S(C)(=O)=O)ccc1OC` [Tiapride hydrochloride] displayed a total cell number of -1.15. The figure for `O=c1[nH]c2ccccc2c2ccccc12` [6(5H)-Phenanthridinone] is -3.66. To `C#CCN(C)Cc1ccccc1` [Pargyline hydrochloride] belongs -1.07.

Values taken from the supplement of paper PMC6135742.
